# This sample is rich in variants without activity.
# B1: tRNA (parent)
# chain: CUCUCGGUAGCCAAGUUGGUUUAAGGCGCAAGACUUUAAUUUAUCACUACGAAAUCUUGAGAUCGGGCGUUCGACUCGCCCCCGGGAGAUUUUUUCCUCGAGCAA
# Variants of: B1
# Assay: nonsense suppression (GFP-seq) (ratio to wild type); higher = more function; SUP4oc tRNA, yeast GFP reporter sort-seq
# Method in brief: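 Each variant's nonsense suppression (GFPSEQ) is a cell-share-weighted bin median GFP/RFP relative to the unmutated parent tRNA. Yeast with genome-integrated tRNA variants from a ~3% random-mutation library, a galactose-driven GFP ochre reporter and RFP were grown in raffinose/galactose medium with 80 mg/L adenine, then sorted into GFP/RFP bins for Illumina sequencing. Variants needed ≥100 reads and ≥30 cells.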
row,Variant,nonsense suppression
1,C27A A33G U70G,≤ 0.026
2,C27A A33U,≤ 0.026
3,C27A A54U A74C,≤ 0.026
4,C27A A62U,≤ 0.026
5,C27A A89U,≤ 0.026
6,C27A C34A C56G A62C A89C,≤ 0.026
7,C27A C64G,≤ 0.026
8,C27A C68A,≤ 0.026
9,C27A C72A,≤ 0.026
10,C27A C75A C83U,≤ 0.026
11,C27A C81A,≤ 0.026
12,C27A C83G G84C,≤ 0.026
13,C27A G28A U63A,≤ 0.026
14,C27A G28C C29A,≤ 0.026
15,C27A G59C,≤ 0.026
16,C27A G59C G69C U76A G84A,≤ 0.026
17,C27A G59U,≤ 0.026
18,C27A G61U G86U,≤ 0.026
19,C27A G65C U71A,≤ 0.026
20,C27A G69A,≤ 0.026
21,C27A G69A U70G A89U,≤ 0.026
22,C27A G78U,0.0309
23,C27A G85A,≤ 0.026
24,C27A G86C,≤ 0.026

row,Variant,nonsense suppression
1,C27A G88A,≤ 0.026
2,C27A U35C G61A,≤ 0.026
3,C27A U57C,≤ 0.026
4,C27A U70A,≤ 0.026
5,C27A U70C,≤ 0.026
6,C27A U71A G78U,≤ 0.026
7,C27G,≤ 0.026
8,C27G A30G A62C,≤ 0.026
9,C27G A30U,≤ 0.026
10,C27G A30U G61C A89G,≤ 0.026
11,C27G A30U G86C,≤ 0.026
12,C27G A31G G61A U76G C81A,≤ 0.026
13,C27G A31G G73C,≤ 0.026
14,C27G A31U A60U,≤ 0.026
15,C27G A33G A60C G65U,≤ 0.026
16,C27G A54U G86A,≤ 0.026
17,C27G A62G,≤ 0.026
18,C27G A62G U63C,≤ 0.026
19,C27G A62U C80A,≤ 0.026
20,C27G A74G,≤ 0.026
21,C27G A87G,0.0273
22,C27G A87G G88C,≤ 0.026
23,C27G A87U,≤ 0.026
24,C27G A89C,≤ 0.026

row,Variant,nonsense suppression
1,C27G C29U U55A,≤ 0.026
2,C27G C34G C68A,≤ 0.026
3,C27G C34U,≤ 0.026
4,C27G C34U A60U G69A,≤ 0.026
5,C27G C34U G65U G69U,≤ 0.026
6,C27G C34U U71C G88C,≤ 0.026
7,C27G C56G,≤ 0.026
8,C27G C64G G66A,≤ 0.026
9,C27G C80G A87G,≤ 0.026
10,C27G C80U,≤ 0.026
11,C27G G28C C29A,≤ 0.026
12,C27G G28C G67A C83A A87C,≤ 0.026
13,C27G G28U,≤ 0.026
14,C27G G28U A33G U57G,≤ 0.026
15,C27G G65C A74G A87G,≤ 0.026
16,C27G G65C C79G,≤ 0.026
17,C27G G65C U76C,≤ 0.026
18,C27G G67A,≤ 0.026
19,C27G G67C G86C,≤ 0.026
20,C27G G69A,≤ 0.026
21,C27G G69U,≤ 0.026
22,C27G G73A,≤ 0.026
23,C27G G73A A74U,≤ 0.026
24,C27G G86U,≤ 0.026

row,Variant,nonsense suppression
1,C27G G88U,≤ 0.026
2,C27G U35C A74G G78A,≤ 0.026
3,C27G U35G A62C,≤ 0.026
4,C27G U35G C79A,≤ 0.026
5,C27G U55A A60C,0.809
6,C27G U55A G66C U70C,≤ 0.026
7,C27G U55C G59C G67A G78C C81A G88C,≤ 0.026
8,C27G U55G,≤ 0.026
9,C27G U55G C79A,≤ 0.026
10,C27G U57A C64A,≤ 0.026
11,C27G U57C G59C C64A,≤ 0.026
12,C27G U57C G59U G86U,≤ 0.026
13,C27G U58G,≤ 0.026
14,C27G U63A,≤ 0.026
15,C27G U63A C75U,≤ 0.026
16,C27G U63A C80A,≤ 0.026
17,C27G U76C,≤ 0.026
18,C27U,0.183
19,C27U A30G A60G,≤ 0.026
20,C27U A30G G32A A33G G66C,≤ 0.026
21,C27U A30G G61U,≤ 0.026
22,C27U A30U G59C C64A,≤ 0.026
23,C27U A31C C72A,≤ 0.026
24,C27U A31C G61C,≤ 0.026

row,Variant,nonsense suppression
1,C27U A31C U55A,≤ 0.026
2,C27U A31U,0.0324
3,C27U A31U A33U,≤ 0.026
4,C27U A31U C34G G69U,≤ 0.026
5,C27U A31U G32U C34U A87G,≤ 0.026
6,C27U A33C U71G,≤ 0.026
7,C27U A33G,≤ 0.026
8,C27U A33G C56A G88A A89U,≤ 0.026
9,C27U A54G C80A,≤ 0.026
10,C27U A54U,0.104
11,C27U A54U A60C G66A,≤ 0.026
12,C27U A54U G59U G85U,≤ 0.026
13,C27U A60C G73A C82A,≤ 0.026
14,C27U A62U C64U,≤ 0.026
15,C27U A74C,0.0355
16,C27U A74C C75G A89U,≤ 0.026
17,C27U A87G G88C,≤ 0.026
18,C27U C29U C64A G84A A87C,≤ 0.026
19,C27U C34G A60G G69C,≤ 0.026
20,C27U C34U,≤ 0.026
21,C27U C34U G69C,≤ 0.026
22,C27U C56G,≤ 0.026
23,C27U C56G A74G,≤ 0.026
24,C27U C56U,≤ 0.026

row,Variant,nonsense suppression
1,C27U C64A,≤ 0.026
2,C27U C64A C75U,≤ 0.026
3,C27U C72U C79G,≤ 0.026
4,C27U C75A,0.641
5,C27U C77U,≤ 0.026
6,C27U C79A,≤ 0.026
7,C27U C80A,≤ 0.026
8,C27U G28A C64U,≤ 0.026
9,C27U G28C A54G G67U,≤ 0.026
10,C27U G32A G73U,≤ 0.026
11,C27U G32A U71G,≤ 0.026
12,C27U G32C,≤ 0.026
13,C27U G32U A74C,≤ 0.026
14,C27U G59A U76C,≤ 0.026
15,C27U G59U C81U,≤ 0.026
16,C27U G59U G61U G66U,≤ 0.026
17,C27U G61A G84U,≤ 0.026
18,C27U G65A,0.0374
19,C27U G65A C77U,≤ 0.026
20,C27U G65C,≤ 0.026
21,C27U G65U,≤ 0.026
22,C27U G67C G85U,≤ 0.026
23,C27U G69A,≤ 0.026
24,C27U G73A,≤ 0.026

row,Variant,nonsense suppression
1,C27U G84A,≤ 0.026
2,C27U G85A,0.207
3,C27U G86A,≤ 0.026
4,C27U U35A,≤ 0.026
5,C27U U35A U76G,≤ 0.026
6,C27U U57C,≤ 0.026
7,C27U U58C C82U,≤ 0.026
8,C27U U58G,≤ 0.026
9,C27U U58G U63G C68U,≤ 0.026
10,C27U U63G,≤ 0.026
11,C27U U63G C77G,≤ 0.026
12,C27U U70A,≤ 0.026
13,C27U U76C,≤ 0.026
14,C27U U76G,≤ 0.026
15,G28A A30U C34U,≤ 0.026
16,G28A A30U U63G,≤ 0.026
17,G28A A33G,0.161
18,G28A A33G C56U,≤ 0.026
19,G28A A54C,0.878
20,G28A A54C C68U,0.18
21,G28A A54C G88U,≤ 0.026
22,G28A A60G,1.07
23,G28A A74C,≤ 0.026

# — the RNAGym collection of RNA variant scans (doi:10.1101/gad.245936.114)
